The target in test [1] is Androgen receptor (Homo sapiens) (UniProt P10275). Kind of test: ATG_AR_TRANS: Attagene TRANS-FACTORIAL HepG2 Assay for human Androgen Receptor (AR) (AID 2282973). The note with it: HepG2 Attagene TRANS-FACTORIAL AR reporter transcription. The gist of the method:
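HepG2 cells transiently transfected with multiplexed GAL4-UAS reporter units and chimeric NR-Gal4 fusion; 24 h compound exposure. Reporter mRNA measured by RT-PCR, 6-FAM labelling, HpaI digestion and capillary electrophoresis; gain-of-signal fitted relative to DMSO baseline.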

The target of test [2] is Androgen Receptor/SRC-1 Co-activator, AR (gene 367) (UniProt P10275). Nature of the test: OT_AR_ARSRC1_0480: Odyssey Thera (OT) 8-hour HEK293T Protein-Complementation Assay for Androgen Receptor/SRC-1 Co-activator (AID 2283354).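 Also: hits raise the complementation signal above DMSO so AC50 marks enhancers.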 The method, boiled down: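 HEK293T cells stably expressing AR and SRC-1 fused to split Venus YFP fragments via (Gly4Ser)2 linkers were read 8 h after compound dosing. Complementation was imaged at 488 and 635nm, and nuclear/cytoplasmic fluorescence ratio (488nm) was taken over ≥400 cells; gain-of-signal versus DMSO.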

Test [3] concerns the target rat Androgen Receptor (AR), Ar (gene 24208) (UniProt P15207). Nature of the test: NVS_NR_rAR: NovaScreen (NVS) Nuclear Receptor Binding Assay for rat Androgen Receptor (AR) (AID 2283366). The method, boiled down:
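Cell-free radioligand binding on extracts of prostate from testosterone-pretreated rats, read by filter-based scintillation counting 18 h after dosing. Loss of bound signal fitted positively versus DMSO; primary screen in duplicate at 25 uM, actives followed up in concentration series.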

In test [4] the target is Estrogen receptor beta (Homo sapiens) (UniProt Q92731). Kind of test: OT_ER_ERbERb_1440: Odyssey Thera (OT) 24-hour HEK293T Protein-Complementation Assay for Estrogen Receptor-beta/-beta Homodimer (AID 2283380).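 Also: fluorescence gain from ER beta LBD homodimer complementation read by laser scanning cytometry; scored as signal increase over DMSO baseline for both agonists and antagonists.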 The gist of the method: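 HEK293T cells stably expressing human ER-beta LBD (aa 310-547) PCA homodimer pair, dosed 24 h; formaldehyde-fixed, Draq5-stained. Readout: increase in nuclear (agonist) or nuclear plus cytoplasmic (antagonist) fluorescence intensity versus DMSO, gain-of-signal fitting.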

Results filed as inconclusive are left out. The calls were made as follows: active = hit-call score of the fitted dose curve at least 0.9, where 1 is the maximum; inconclusive = response in the unintended direction; inactive = score below 0.9. For part of its entries the source gives two or more results. This is not the full list of results. There may be further records. The records of an entry are repeated measurements (runs, samples, wells, individuals or studies). Some compounds were tested as several samples or in several runs, with calls that do not always agree.

UniProt Q92731, sequence (Q92731 whole entry, looked up, the tested form may be a part): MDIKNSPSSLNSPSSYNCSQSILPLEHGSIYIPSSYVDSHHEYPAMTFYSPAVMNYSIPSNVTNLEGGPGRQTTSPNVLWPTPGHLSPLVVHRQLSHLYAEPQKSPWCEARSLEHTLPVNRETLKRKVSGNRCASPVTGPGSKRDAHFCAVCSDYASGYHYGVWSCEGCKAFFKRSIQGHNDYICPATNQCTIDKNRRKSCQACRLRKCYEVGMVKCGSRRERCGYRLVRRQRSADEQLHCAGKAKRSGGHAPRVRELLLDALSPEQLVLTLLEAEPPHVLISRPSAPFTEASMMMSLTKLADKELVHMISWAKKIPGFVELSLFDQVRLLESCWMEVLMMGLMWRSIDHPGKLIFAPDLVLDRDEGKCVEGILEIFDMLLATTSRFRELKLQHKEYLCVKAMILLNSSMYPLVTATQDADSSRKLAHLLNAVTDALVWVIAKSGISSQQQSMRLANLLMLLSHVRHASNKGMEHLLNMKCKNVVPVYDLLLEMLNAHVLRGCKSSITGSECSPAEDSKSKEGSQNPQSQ
UniProt P15207, sequence (P15207 whole entry, looked up): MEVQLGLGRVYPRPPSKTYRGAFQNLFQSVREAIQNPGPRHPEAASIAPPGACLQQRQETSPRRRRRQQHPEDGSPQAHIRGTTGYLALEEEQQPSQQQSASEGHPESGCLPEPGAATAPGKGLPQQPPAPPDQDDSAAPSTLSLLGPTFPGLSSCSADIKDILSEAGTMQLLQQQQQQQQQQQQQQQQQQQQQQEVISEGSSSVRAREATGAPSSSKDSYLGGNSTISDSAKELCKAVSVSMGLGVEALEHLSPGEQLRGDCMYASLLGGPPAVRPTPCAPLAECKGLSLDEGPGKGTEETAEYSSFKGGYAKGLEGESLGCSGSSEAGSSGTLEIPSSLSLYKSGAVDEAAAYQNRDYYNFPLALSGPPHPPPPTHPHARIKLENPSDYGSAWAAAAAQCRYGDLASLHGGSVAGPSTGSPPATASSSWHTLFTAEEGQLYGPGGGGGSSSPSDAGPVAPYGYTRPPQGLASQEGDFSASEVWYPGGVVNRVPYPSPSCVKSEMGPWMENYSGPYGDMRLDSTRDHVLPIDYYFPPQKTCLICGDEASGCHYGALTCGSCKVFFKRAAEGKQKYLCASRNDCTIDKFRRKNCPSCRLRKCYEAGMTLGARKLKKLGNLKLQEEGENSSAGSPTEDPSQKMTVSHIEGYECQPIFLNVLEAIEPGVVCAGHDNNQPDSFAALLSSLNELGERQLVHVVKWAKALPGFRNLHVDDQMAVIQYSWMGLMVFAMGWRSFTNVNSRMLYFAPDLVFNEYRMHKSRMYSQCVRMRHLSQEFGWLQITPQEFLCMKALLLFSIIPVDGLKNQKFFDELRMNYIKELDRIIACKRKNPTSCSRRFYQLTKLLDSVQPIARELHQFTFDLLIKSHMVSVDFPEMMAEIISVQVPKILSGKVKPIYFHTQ

In general, AC50 refers to the concentration at which the activity in the assay is half-maximal. Regarding `C[C@]12C=CC3=C4CCC(=O)C=C4CC[C@H]3[C@@H]1CC[C@@H]2O`, the AC50 entry in test [1] was “active: 9.14, 11.3, 60, 55.8, 227 nM [separate samples]”; in test [2] it was “active: 1.08, 0.554, 30, 29.9, 185 nM [separate samples]”; in test [3], “active: 11, 21.7, 2.29, 13.4, 24 nM [separate samples]”; in test [4], “active: 151 nM, 17.7 µM, 16.4 µM, 16.2 µM [separate samples]”.

The values are drawn from PubChem BioAssay (EPA / NIEHS).
